Measured values: the supplement of paper PMC3334620
In all, about 33,000 sequences were measured (“E-score (-0.5 to 0.5)”: median about -0.043, highest 2% from about 0.37 on). The list shows a part of the results.

Target: T1, Upc2 (UniProt Q12151)
T1 sequence: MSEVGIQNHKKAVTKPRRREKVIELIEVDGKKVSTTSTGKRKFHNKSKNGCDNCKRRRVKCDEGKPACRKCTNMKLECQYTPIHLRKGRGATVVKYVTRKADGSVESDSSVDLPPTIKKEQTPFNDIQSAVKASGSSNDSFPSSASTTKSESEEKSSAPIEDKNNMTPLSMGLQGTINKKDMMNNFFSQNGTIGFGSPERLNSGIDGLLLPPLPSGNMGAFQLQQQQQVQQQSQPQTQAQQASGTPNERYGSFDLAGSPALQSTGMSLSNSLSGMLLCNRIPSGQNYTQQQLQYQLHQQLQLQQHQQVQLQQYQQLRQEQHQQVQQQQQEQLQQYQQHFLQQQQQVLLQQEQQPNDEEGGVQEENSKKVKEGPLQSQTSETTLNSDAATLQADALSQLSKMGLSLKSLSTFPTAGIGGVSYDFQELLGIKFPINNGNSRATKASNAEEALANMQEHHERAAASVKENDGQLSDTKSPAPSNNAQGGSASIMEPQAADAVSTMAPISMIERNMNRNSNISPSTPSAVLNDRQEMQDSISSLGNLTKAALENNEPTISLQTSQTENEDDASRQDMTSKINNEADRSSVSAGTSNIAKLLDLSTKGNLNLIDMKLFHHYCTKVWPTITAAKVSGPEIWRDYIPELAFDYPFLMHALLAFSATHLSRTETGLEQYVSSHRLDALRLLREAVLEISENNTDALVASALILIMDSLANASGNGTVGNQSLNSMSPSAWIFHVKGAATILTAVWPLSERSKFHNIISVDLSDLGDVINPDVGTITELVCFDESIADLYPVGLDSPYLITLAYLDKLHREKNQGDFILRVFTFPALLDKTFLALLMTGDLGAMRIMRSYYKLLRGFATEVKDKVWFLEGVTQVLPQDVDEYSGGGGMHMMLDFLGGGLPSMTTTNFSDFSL
Test: PBM E-score (8-mer binding enrichment) (E-score (-0.5 to 0.5)); higher = stronger / more preferred TF binding; most listed sequences are background and not binding sites
Details: protein concentration: 200 nM; construct: GST-full length
Summary of the method: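 Yeast transcription factors carrying a GST tag, as full-length proteins or DNA-binding domains, were produced by PURExpress in vitro transcription/translation. About 100-200 nM protein was applied to universal all-10-mer Agilent arrays, double-stranded by primer extension on fresh or once-stripped slides. Bound protein was detected with fluorescent anti-GST, and scans were normalised with masliner. The Universal PBM Analysis Suite gave each ungapped eight-base word, pooled with its reverse complement, an E-score, a modified Wilcoxon-Mann-Whitney statistic.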

Row | Sequence | PBM E-score
1 | ATCGGTAG | -0.0524
2 | ACCAGGGC | -0.188
3 | GATAAAAC | 0.238
4 | TACCCGGA | 0.12
5 | CCGAGTCA | -0.0448
6 | CCAATGGC | -0.226
7 | AGTCAGCC | -0.0587
8 | GGAAGACA | -0.111
9 | AATACCAT | -0.0768
10 | TAGTCATA | 0.0321
11 | AAAAGGTA | 0.101
12 | ACTCCGAA | -0.125
13 | ACTATTAG | 0.0061
14 | CATGTAAA | -0.0744
15 | ATAAAGAA | 0.00049
16 | AACCAATC | 0.0951
17 | AAGCGAGC | 0.335
18 | TGGACCCA | -0.221
19 | GGACACCC | -0.233
20 | GCAAGCGC | 0.102
21 | AAATGAGT | -0.0339
22 | ACGAAAGT | 0.304

Row | Sequence | PBM E-score
23 | AACTTCAA | 0.0368
24 | ATAAAACC | 0.0496
25 | CTACGCGA | 0.261
26 | ATAAGAGA | 0.243
27 | GTGAAATA | 0.0114
28 | ATACATAG | -0.0133
29 | CATGACAG | -0.121
30 | GGACAACA | -0.0516
31 | ACCTTCGA | -0.0685
32 | ACACGACT | 0.194
33 | CATCGCAA | 0.0254
34 | GAACCTGA | -0.126
35 | CAGCTTAA | -0.0705
36 | GGAAAGTA | 0.0212
37 | CCCGTCAG | -0.302
38 | AACTGTGA | 0.0453
39 | ACCCCTCA | -0.117
40 | TCACGGGA | -0.0633
41 | AGATACAT | -0.172
42 | TGACAAAA | -0.0498
43 | TGCGCCCA | -0.183
44 | ATGCGATC | 0.213

Row | Sequence | PBM E-score
45 | CATTAATC | 0.0546
46 | GGAGGTCA | -0.319
47 | AGGACCAT | -0.0361
48 | GATCATAA | 0.121
49 | AAACATAC | 0.171
50 | AGTCCTAC | 0.0484
51 | TCGCGGCA | 0.00548
52 | CCTACGGC | -0.21
53 | CACGACTG | 0.0762
54 | ACCGTTGC | 0.0183
55 | CGAGCTAC | 0.0491
56 | TACGGTCA | 0.332
57 | AGGTTGCG | -0.156
58 | GAGGCGCA | -0.104
59 | AAGTGCGC | -0.134
60 | GTATAAAC | 0.4
61 | CATAAGAA | 0.154
62 | GGAGCCTA | -0.238
63 | CTAATAGC | -0.103
64 | AAATAGGC | -0.0831
65 | ATGTCAAG | -0.24
66 | AGTATGGG | -0.192

Row | Sequence | PBM E-score
67 | GAAGACCC | -0.268
68 | TAAATGGA | -0.2
69 | CCCAAATA | -0.136
70 | AATTATAA | 0.0533
71 | TACCTTGA | 0.00639
72 | ATACCGAT | 0.137
73 | TAAGAAGA | 0.11
74 | AAAGATGC | 0.15
75 | ACCATACT | 0.0287
76 | CGACTCCC | -0.0182
77 | GCGAACCA | 0.164
78 | CCACGCAG | 0.0616
79 | ATGAAAGG | -0.241
80 | GGTTAGGA | -0.0219
81 | AACCATAT | 0.122
82 | CGGAGCGA | 0.261
83 | GGAGTAAA | -0.0785
84 | ATCGCGCC | 0.0941
85 | AACAGCTT | -0.0977
86 | CACCTGAC | -0.247
